{
  "source": "patent US20260027220A1",
  "about": "“EPHA2 BCL-XL INHIBITOR ANTIBODY-DRUG CONJUGATES AND METHODS OF USE THEREOF” (Novartis AG, priority 2022, published 2026)",
  "molecules": {"B1": {"name": "3x germ (antibody)", "heavy": "EVQLLESGGGLVQPGGSLRLSCAASGFTFSHYMMAWVRQAPGKGLEWVSRIGPSGGPTHYADSVKGRFTISRDNSKNTLYLQMNSLRAEDTAVYYCAGYDSGYDYVAVAGPAEYFQHWGQGTLVTVSSASTKGPSVFPLAPSSKSTSGGTAALGCLVKDYFPCPVTVSWNSGALTSGVHTFPAVLQSSGLYSLSSVVTVPSSSLGTQTYICNVNHKPSNTKVDKRV[not shown - human IgG1 Fc with S375C (EU numbers)]", "light": "DIQMTQSPSTLSASVGDRVTITCRASQSISTWLAWYQQKPGKAPKLLIYKASNLHTGVPSRFSGSGSGTEFTLTISSLQPDDFATYYCQQYNSYSRTFGQGTKVEIKRTVAAPSVFIFPPSDEQLKSGTASVVCLLNNFYPREAKVQWKVDNALQSGNSQESVTEQDSKDSTYSLSSTLTLSKADYEKHKVYACEVTHQGLSSPVTKSFNRGEC"}},
  "conditions_in_all_cases": "SPR Biacore 8k, anti-Fab capture, 37° C., 1:1 binding model",
  "key": {"mouse EphA2 ectodomain": {"biological_target": "T1, mouse EphA2 ectodomain (Mus musculus, UniProt Q03145)", "T1 construct": "The soluble human, mouse and cyno EphA2 ectodomain flowed over both flow cells", "T1 sequence (Q03145 26-538 limits assumed)": "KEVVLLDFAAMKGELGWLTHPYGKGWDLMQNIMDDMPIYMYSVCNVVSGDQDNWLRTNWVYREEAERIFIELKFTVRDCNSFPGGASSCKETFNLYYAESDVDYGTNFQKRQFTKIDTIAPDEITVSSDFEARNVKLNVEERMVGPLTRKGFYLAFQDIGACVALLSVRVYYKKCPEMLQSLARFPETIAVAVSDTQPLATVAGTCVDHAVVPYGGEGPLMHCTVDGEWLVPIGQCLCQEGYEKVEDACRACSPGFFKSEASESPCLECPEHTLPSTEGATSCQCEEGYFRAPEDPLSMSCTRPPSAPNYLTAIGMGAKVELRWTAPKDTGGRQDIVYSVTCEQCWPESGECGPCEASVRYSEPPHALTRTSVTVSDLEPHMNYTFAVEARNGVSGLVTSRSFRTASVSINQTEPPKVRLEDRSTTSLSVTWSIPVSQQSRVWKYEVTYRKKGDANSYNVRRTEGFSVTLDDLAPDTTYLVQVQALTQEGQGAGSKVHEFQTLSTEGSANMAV", "assay": "Biacore KD determination, mouse EphA2", "description": "(§1) Kinetic rate constants were determined via SPR using the Biacore 8k instrument (Cytiva, formerly GE Healthcare Lifesciences) as described below.\n(§2) A human Fab capture method was utilized in order to determine kinetics for the antibodies. […] Each channel has two flow cells. The reference flow cell contained only immobilized anti-Fab, whereas the reaction flow cell captured anti-EphA2 IgG through anti-Fab. HBS-EP+ Buffer, pH 7.6 was used as the running buffer. The soluble human, mouse and cyno EphA2 ectodomain flowed over both flow cells on 8 channels. The EphA2 ectodomain concentration started at 50 nM and was serially diluted at one part to one part (1:1) in the running buffer for six concentrations. The analysis chamber was kept at 37° C. Regeneration was performed at the end of each sample washing with the solution of 10 mM Glycine-HCl, pH 2.1 provided in the kit.\n(§3) The data were analysed using the Biacore Insight Evaluation Software. Double reference subtraction was completed to generate the final data. The raw data was fitted to a 1:1 binding model, with parameter(s) Rmax set to local."}, "human EphA2 ectodomain": {"biological_target": "T2, human EphA2 ectodomain (Homo sapiens, UniProt P29317)", "T2 construct": "The soluble human, mouse and cyno EphA2 ectodomain flowed over both flow cells", "T2 sequence (P29317 24-537 limits assumed)": "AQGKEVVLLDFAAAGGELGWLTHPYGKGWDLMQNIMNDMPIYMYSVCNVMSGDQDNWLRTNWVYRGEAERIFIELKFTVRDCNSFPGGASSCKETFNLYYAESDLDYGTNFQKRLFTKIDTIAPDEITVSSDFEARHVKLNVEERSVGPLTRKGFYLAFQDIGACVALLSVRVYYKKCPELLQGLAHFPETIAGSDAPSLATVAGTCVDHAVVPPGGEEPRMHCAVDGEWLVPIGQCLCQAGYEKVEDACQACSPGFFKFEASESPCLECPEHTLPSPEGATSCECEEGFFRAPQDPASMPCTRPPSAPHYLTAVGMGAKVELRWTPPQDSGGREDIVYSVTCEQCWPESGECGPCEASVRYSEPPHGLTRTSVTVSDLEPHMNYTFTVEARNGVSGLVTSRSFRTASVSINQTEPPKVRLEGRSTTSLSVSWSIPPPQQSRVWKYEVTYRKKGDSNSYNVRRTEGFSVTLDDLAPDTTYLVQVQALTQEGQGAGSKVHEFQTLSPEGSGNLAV", "assay": "Biacore KD determination, human EphA2", "description": "as §1, §2, §3"}, "cyno EphA2 ectodomain": {"biological_target": "T3, cyno EphA2 ectodomain (Macaca fascicularis, UniProt Q1KL86)", "T3 construct": "The soluble human, mouse and cyno EphA2 ectodomain flowed over both flow cells", "T3 sequence (Q1KL86 25-537 limits assumed)": "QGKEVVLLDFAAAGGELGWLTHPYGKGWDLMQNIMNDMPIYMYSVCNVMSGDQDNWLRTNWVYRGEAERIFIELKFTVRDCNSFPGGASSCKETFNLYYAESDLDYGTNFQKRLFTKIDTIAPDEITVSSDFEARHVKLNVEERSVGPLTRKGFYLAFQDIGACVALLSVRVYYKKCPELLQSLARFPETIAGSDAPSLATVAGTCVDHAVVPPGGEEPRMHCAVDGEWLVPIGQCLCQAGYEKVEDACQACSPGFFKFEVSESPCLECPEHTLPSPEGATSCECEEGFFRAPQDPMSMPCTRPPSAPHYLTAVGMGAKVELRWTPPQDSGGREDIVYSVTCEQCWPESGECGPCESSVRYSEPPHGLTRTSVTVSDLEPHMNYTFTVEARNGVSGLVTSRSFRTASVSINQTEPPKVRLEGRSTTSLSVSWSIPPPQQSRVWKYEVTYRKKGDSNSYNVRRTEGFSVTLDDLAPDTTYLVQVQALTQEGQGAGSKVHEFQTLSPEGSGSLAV", "assay": "Biacore KD determination, cyno EphA2", "description": "as §1\nA human Fab capture method was utilized in order to determine kinetics for the antibodies. The anti-Fab antibody used was provided in the Human Fab capture kit (Cytiva, cat #28958325) and was immobilized on all 8 channels of CM5 sensor chip according to the manufacturer's instructions. Each channel has two flow cells. The reference flow cell contained only immobilized anti-Fab, whereas the reaction flow cell captured anti-EphA2 IgG through anti-Fab. HBS-EP+ Buffer, pH 7.6 was used as the running buffer. The soluble human, mouse and cyno EphA2 ectodomain flowed over both flow cells on 8 channels. The EphA2 ectodomain concentration started at 50 nM and was serially diluted at one part to one part (1:1) in the running buffer for six concentrations. The analysis chamber was kept at 37° C. Regeneration was performed at the end of each sample washing with the solution of 10 mM Glycine-HCl, pH 2.1 provided in the kit.\nas §3"}},
  "data": [
    {"molecule": "B1", "values": [
      {"measurement": "ka", "setting": "mouse EphA2 ectodomain", "value": 193000, "unit": "M⁻¹ s⁻¹"},
      {"measurement": "kd", "setting": "mouse EphA2 ectodomain", "value": 0.0635, "unit": "s⁻¹"},
      {"measurement": "ka", "setting": "human EphA2 ectodomain", "value": 250000, "unit": "M⁻¹ s⁻¹"},
      {"measurement": "kd", "setting": "human EphA2 ectodomain", "value": 0.0996, "unit": "s⁻¹"},
      {"measurement": "ka", "setting": "cyno EphA2 ectodomain", "value": 886000, "unit": "M⁻¹ s⁻¹"},
      {"measurement": "kd", "setting": "cyno EphA2 ectodomain", "value": 0.121, "unit": "s⁻¹"}
    ]}
  ]
}
